Measurements published in publication PMC10987633, “Structural basis for RAD18 regulation by MAGEA4 and its implications for RING ubiquitin ligase binding by MAGE family proteins” (The EMBO Journal, 2024).

Target: the molecule itself
Test: AUC; sedimentation velocity of the RAD18/RAD6 complex, 0.5 mg/ml, 42,000 rpm, 4 °C, SEC buffer; RAD18 dimer within the complex

B1: His-tagged full-length RAD18 wild type (enzyme)
chain: not shown
notes: RAD18, RING E3 ubiquitin ligase, human, Uniprot […], […], full length; Cloned into PET15C; Dimer in the RAD18/RAD6 complex by AUC and mass photometry; also called RAD18 WT; FL RAD18; source: E. coli BL21star; co-expressed with untagged MAGEA4, in cleared lysate (His pull-down); co-expressed with RAD6 and purified as RAD18/RAD6 (TALON, SEC); not shown: His tag, N-terminal, kept
  stoichiometry N: 2
